# Measurements from the supplement of paper PMC8728848.
# The other results are listed elsewhere or left out.
# Key:
# Assay in all cases: glycan array binding signal (z-score within array); higher = stronger binding
# Settings in all cases: glycan notation: IUPAC condensed, linker removed
# [1] = biological target: Neu5Ac(a2-6)Gal(b1-4)GlcNAc(b1-3)Gal(b1-4)GlcNAc(b1-3)Gal(b1-4)GlcNAc
# Procedure, shortened: (§1)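 Negative Z-scores can be read as non-binding. The Z-score is calculated within each array and then averaged across arrays of one protein sequence at different concentrations or buffers and across linkers. Arrays, 3228 in all, were curated from the Consortium for Functional Glycomics database and kept only where the protein sequence was available.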
# [2] = biological target: Neu5Ac(a2-6)Gal(b1-4)GlcNAc(b1-3)Gal(b1-4)GlcNAc(b1-3)Gal(b1-4)GlcNAc(b1-2)Man(a1-3)[Neu5Ac(a2-6)Gal(b1-4)GlcNAc(b1-3)Gal(b1-4)GlcNAc(b1-3)Gal(b1-4)GlcNAc(b1-2)Man(a1-6)]GalNAc
# Procedure, shortened: as §1
# [3] = biological target: Neu5Ac(a2-6)Gal(b1-4)GlcNAc(b1-3)Gal(b1-4)GlcNAc(b1-3)GalNAc
# Procedure, shortened: as §1
# [4] = biological target: Neu5Ac(a2-6)Gal(b1-4)GlcNAc(b1-3)Gal(b1-4)GlcNAc(b1-3)[Neu5Ac(a2-6)Gal(b1-4)GlcNAc(b1-3)Gal(b1-4)GlcNAc(b1-6)]GalNAc
# Procedure, shortened: as §1
# [5] = biological target: Neu5Ac(a2-6)Gal(b1-4)GlcNAc(b1-3)Gal(b1-4)GlcNAc(b1-6)[Gal(b1-3)]GalNAc
# Procedure, shortened: as §1
# [6] = biological target: Neu5Ac(a2-6)Gal(b1-4)GlcNAc(b1-3)Gal(b1-4)[Fuc(a1-3)]GlcNAc(b1-3)Gal(b1-4)[Fuc(a1-3)]GlcNAc
# Procedure, shortened: as §1
# [7] = biological target: Neu5Ac(a2-6)Gal(b1-4)GlcNAc(b1-3)GalNAc
# Procedure, shortened: as §1
# [8] = biological target: Neu5Ac(a2-6)Gal(b1-4)GlcNAc(b1-3)[Neu5Ac(a2-6)Gal(b1-4)GlcNAc(b1-6)]GalNAc
# Procedure, shortened: as §1
# [9] = biological target: Neu5Ac(a2-6)Gal(b1-4)GlcNAc(b1-6)GalNAc
# Procedure, shortened: as §1
# [10] = biological target: Neu5Ac(a2-6)Gal(b1-4)GlcNAc(b1-6)[Gal(b1-3)GlcNAc(b1-3)]Gal(b1-4)Glc
# Procedure, shortened: as §1
# [11] = biological target: Neu5Ac(a2-6)Gal(b1-4)GlcNAc(b1-6)[Gal(b1-3)]GalNAc
# Procedure, shortened: as §1
# [12] = biological target: Neu5Ac(a2-6)Gal(b1-4)GlcNAc6S
# Procedure, shortened: as §1
# [13] = biological target: Neu5Ac(a2-6)GalNAc
# Procedure, shortened: as §1
# [14] = biological target: Neu5Ac(a2-6)GalNAc(b1-4)GlcNAc
# Procedure, shortened: as §1
# [15] = biological target: Neu5Ac(a2-6)GalNAc(b1-4)GlcNAc6S
# Procedure, shortened: as §1
# [16] = biological target: Neu5Ac(a2-6)GlcNAc(b1-4)GlcNAc
# Procedure, shortened: as §1
# [17] = biological target: Neu5Ac(a2-6)GlcNAc(b1-4)GlcNAc(b1-4)GlcNAc
# Procedure, shortened: as §1
# [18] = biological target: Neu5Ac(a2-8)Neu5Ac
# Procedure, shortened: as §1
# [19] = biological target: Neu5Ac(a2-8)Neu5Ac(a2-3)Gal(b1-3)GalNAc(b1-4)[Neu5Ac(a2-3)]Gal(b1-4)Glc
# Procedure, shortened: as §1
# [20] = biological target: Neu5Ac(a2-8)Neu5Ac(a2-3)Gal(b1-3)GalNAc(b1-4)[Neu5Ac(a2-8)Neu5Ac(a2-3)]Gal(b1-4)Glc
# Procedure, shortened: as §1
# [21] = biological target: Neu5Ac(a2-8)Neu5Ac(a2-3)Gal(b1-4)Glc
# Procedure, shortened: as §1
# [22] = biological target: Neu5Ac(a2-8)Neu5Ac(a2-3)Gal(b1-4)GlcNAc
# Procedure, shortened: as §1
# [23] = biological target: Neu5Ac(a2-8)Neu5Ac(a2-3)[Gal(b1-3)GalNAc(b1-4)]Gal(b1-4)Glc
# Procedure, shortened: as §1
# [24] = biological target: Neu5Ac(a2-8)Neu5Ac(a2-3)[GalNAc(b1-4)]Gal(b1-4)Glc
# Procedure, shortened: as §1
# [25] = biological target: Neu5Ac(a2-8)Neu5Ac(a2-8)Neu5Ac
# Procedure, shortened: as §1
# [26] = biological target: Neu5Ac(a2-8)Neu5Ac(a2-8)Neu5Ac(a2-3)Gal(b1-4)Glc
# Procedure, shortened: as §1
# [27] = biological target: Neu5Ac(a2-8)Neu5Ac(a2-8)Neu5Ac(a2-3)[Gal(b1-3)GalNAc(b1-4)]Gal(b1-4)Glc
# Procedure, shortened: as §1
# [28] = biological target: Neu5Ac(a2-8)Neu5Ac(a2-8)Neu5Ac(a2-3)[GalNAc(b1-4)]Gal(b1-4)Glc
# Procedure, shortened: as §1
# [29] = biological target: Neu5Ac(a2-8)Neu5Ac(a2-8)Neu5Ac(a2-8)Neu5Ac(a2-3)[GalNAc(b1-4)]Gal(b1-4)Glc
# Procedure, shortened: as §1
# [30] = biological target: Neu5Ac(a2-8)Neu5Gc(a2-3)Gal(b1-4)GlcNAc
# Procedure, shortened: as §1
# [31] = biological target: Neu5Ac(b2-6)Gal(b1-4)GlcNAc
# Procedure, shortened: as §1
# [32] = biological target: Neu5Ac(b2-6)GalNAc
# Procedure, shortened: as §1
# [33] = biological target: Neu5Ac9Ac(a2-3)Gal(b1-3)GlcNAc
# Procedure, shortened: as §1
# [34] = biological target: Neu5Ac9Ac(a2-3)Gal(b1-4)GlcNAc
# Procedure, shortened: as §1
# [35] = biological target: Neu5Ac9Ac(a2-6)Gal(b1-4)GlcNAc
# Procedure, shortened: as §1
# [36] = biological target: Neu5Gc(a2-3)Gal(b1-3)GlcNAc
# Procedure, shortened: as §1
# [37] = biological target: Neu5Gc(a2-3)Gal(b1-3)[Fuc(a1-4)]GlcNAc
# Procedure, shortened: as §1
# [38] = biological target: Neu5Gc(a2-3)Gal(b1-4)Glc
# Procedure, shortened: as §1
# [39] = biological target: Neu5Gc(a2-3)Gal(b1-4)GlcNAc
# Procedure, shortened: as §1
# [40] = biological target: Neu5Gc(a2-3)Gal(b1-4)GlcNAc(b1-3)Gal(b1-4)GlcNAc(b1-2)Man(a1-3)[Neu5Gc(a2-3)Gal(b1-4)GlcNAc(b1-3)Gal(b1-4)GlcNAc(b1-2)Man(a1-6)]Man(b1-4)GlcNAc(b1-4)GlcNAc
# Procedure, shortened: as §1
# [41] = biological target: Neu5Gc(a2-3)Gal(b1-4)[Fuc(a1-3)]GlcNAc
# Procedure, shortened: as §1
# [42] = biological target: Neu5Gc(a2-6)Gal(b1-4)GlcNAc
# Procedure, shortened: as §1
# [43] = biological target: Neu5Gc(a2-6)GalNAc
# Procedure, shortened: as §1
# [44] = biological target: Neu5Gc(a2-8)Neu5Ac(a2-3)Gal(b1-4)GlcNAc
# Procedure, shortened: as §1
# [45] = biological target: Neu5Gc(a2-8)Neu5Gc(a2-3)Gal(b1-4)GlcNAc
# Procedure, shortened: as §1
binder,measurement,setting,value
Als3-N (Candida albicans) (protein) KTITGVFNSFNSLTWSNAATYNYKGPGTPTWNAVLGWSLDGTSASPGDTFTLNMPCVFKFTTSQTSVDLTAHGVKYATCQFQAGEEFMTFSTLTCTVSNTLTPSIKALGTVTLPLAFNVGGTGSSVDLEDSKCFTAGTNTVTFNDGGKKISINVDFERSNVDPKGYLTDSRVIPSLNKVSTLFVAPQCANGYTSGTMGFANTYGDVQIDCSNIHVGITKGLNDWNYPVSSESFSYTKTCSSNGIFITYKNVPAGYRPFVDAYISATDVNSYTLSYANEYTCAGGYWQRAPFTLRWTGYRNSDAGSNGIVIVATTRTVTDSTTAVTTLPFDPNRDKTKTIEILKPIPTTTITTSYVGVTTSYLTKTAPIGETATVIVDIPYHTTTTVTSKWTGTITSTTTHTNPTDSIDTVIVQVP,glycan array binding signal (z-score),[1],-0.282
same,glycan array binding signal (z-score),[2],2.56
same,glycan array binding signal (z-score),[3],0.057
same,glycan array binding signal (z-score),[4],0.416
same,glycan array binding signal (z-score),[5],-0.112
same,glycan array binding signal (z-score),[6],-0.206
same,glycan array binding signal (z-score),[7],0.258
same,glycan array binding signal (z-score),[8],-0.064
same,glycan array binding signal (z-score),[9],-0.069
same,glycan array binding signal (z-score),[10],-0.35
same,glycan array binding signal (z-score),[11],0.187
same,glycan array binding signal (z-score),[12],-0.046
same,glycan array binding signal (z-score),[13],-0.278
same,glycan array binding signal (z-score),[14],-0.29
same,glycan array binding signal (z-score),[15],0.14
same,glycan array binding signal (z-score),[16],-0.106
same,glycan array binding signal (z-score),[17],-0.271
same,glycan array binding signal (z-score),[18],-0.221
same,glycan array binding signal (z-score),[19],-0.115
same,glycan array binding signal (z-score),[20],-0.226
same,glycan array binding signal (z-score),[21],-0.344
same,glycan array binding signal (z-score),[22],-0.018
same,glycan array binding signal (z-score),[23],-0.267
same,glycan array binding signal (z-score),[24],-0.228
same,glycan array binding signal (z-score),[25],-0.219
same,glycan array binding signal (z-score),[26],-0.327
same,glycan array binding signal (z-score),[27],0.319
same,glycan array binding signal (z-score),[28],0.662
same,glycan array binding signal (z-score),[29],-0.228
same,glycan array binding signal (z-score),[30],-0.32
same,glycan array binding signal (z-score),[31],1.42
same,glycan array binding signal (z-score),[32],-0.197
same,glycan array binding signal (z-score),[33],-0.232
same,glycan array binding signal (z-score),[34],-0.353
same,glycan array binding signal (z-score),[35],-0.187
same,glycan array binding signal (z-score),[36],-0.207
same,glycan array binding signal (z-score),[37],-0.341
same,glycan array binding signal (z-score),[38],-0.094
same,glycan array binding signal (z-score),[39],-0.284
same,glycan array binding signal (z-score),[40],0.187
same,glycan array binding signal (z-score),[41],-0.212
same,glycan array binding signal (z-score),[42],-0.286
same,glycan array binding signal (z-score),[43],-0.152
same,glycan array binding signal (z-score),[44],-0.304
same,glycan array binding signal (z-score),[45],-0.293
